# Laboratory results from PubChem BioAssay (NCATS).
# This list was built around the results that the source calls inconclusive (neither active nor inactive); the mix of calls is not that of the screen. For some assays here: No potency is given beside an inconclusive call; the fits are too rough. Active and inactive are the calls of the source. Unless noted, the call rests on the fitted dose curve; in most records, active means well fitted curve in the direction sought with a large enough effect; inconclusive means small, poorly fitted or top-dose-only effect, or another doubt; inactive means no such curve, though single readings can be large; an effect the other way counts as inactive or inconclusive.
# Columns and labels:
# [1] = qHTS of pediatric cancer cell lines to identify multiple opportunities for drug repurposing: Primary screen for NB1643 cells (AID 1347099);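 further: plate controls were DMSO neutral control for no effect and bortezomib positive control for full effect; nearly all actives have a fitted effect of over 50% in size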
# In short: (§1)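 Plated cells (500-1,000 per well, growth media) were allowed to settle for 5 hours, treated with compound dilutions for 48 hours, then lysed with CellTiter-Glo for 15 min at room temperature before luminescence reading.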
# [2] = qHTS of pediatric cancer cell lines to identify multiple opportunities for drug repurposing: Primary screen for RD cells (AID 1347104); settings: RD rhabdomyosarcoma viability, CellTiter-Glo luminescence, 48 h; activity change, negative = cytotoxic: at 46 µM (top of the series); further: nearly all actives have a fitted effect of over 55% in size; further: potency means the concentration at half of the fitted maximal effect;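 on activity change, negative = cytotoxic: plate controls were DMSO for no effect and bortezomib for full effect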
# In short: as §1
# [3] = Primary qHTS for small molecule stabilizers of the endoplasmic reticulum resident proteome: Secreted ER Calcium Modulated Protein (SERCaMP) assay (AID 1508630); settings: SH-SY5Y GLuc-SERCaMP (Gaussia luciferase released on ER calcium loss) secretion, thapsigargin, luminescence; activity change, negative = inhibition: at 38.4 µM (top of the series) unless noted; further: potency means the concentration at half of the fitted maximal effect
# In short: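 GLuc-SERCaMP-expressing SH-SY5Y cells, pretreated 16 h with compound, are challenged with thapsigargin to empty ER calcium stores; after 4 h, coelenterazine is added directly to the medium and luminescence is imaged.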
# [4] = molecular target: Cytochrome P450 2C9 (Homo sapiens) (UniProt P11712); test: Cytochrome P450 family 2 subfamily C member 9 (CYP2C9) small molecule antagonists: luciferase biochemical (cell-free) qHTS assay (AID 1645842; active means well fitted curve in the direction sought with a large enough effect in the repeat runs; inconclusive means weak or mixed curves; inactive means no such curve, though single readings can be large; an effect the other way counts as inactive or inconclusive; further: nearly all actives have a fitted effect of over 55% in size; further: potency means the concentration at half of the fitted maximal effect; on activity change, negative = inhibition: on the % scale 0 is the no-effect control and ±100 the full control effect)
# Chain of UniProt P11712 (P11712 whole entry, looked up): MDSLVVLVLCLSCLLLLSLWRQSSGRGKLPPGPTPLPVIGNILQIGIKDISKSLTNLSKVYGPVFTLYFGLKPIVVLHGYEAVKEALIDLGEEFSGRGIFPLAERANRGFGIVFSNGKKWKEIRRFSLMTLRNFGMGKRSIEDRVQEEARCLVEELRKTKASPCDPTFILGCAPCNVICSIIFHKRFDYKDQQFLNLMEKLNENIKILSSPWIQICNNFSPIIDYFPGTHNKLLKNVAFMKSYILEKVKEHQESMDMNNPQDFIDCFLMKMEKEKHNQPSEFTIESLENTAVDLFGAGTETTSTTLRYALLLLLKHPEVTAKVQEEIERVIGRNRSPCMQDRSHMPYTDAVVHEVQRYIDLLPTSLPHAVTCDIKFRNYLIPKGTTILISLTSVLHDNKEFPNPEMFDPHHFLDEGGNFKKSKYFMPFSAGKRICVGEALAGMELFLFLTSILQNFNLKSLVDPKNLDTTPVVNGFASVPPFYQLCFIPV
# In short: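 Luminescence, after 20 min with luciferin detection reagent, reflected CYP2C9 turnover during a 1 h NADPH-driven reaction at 37C. Enzyme-substrate mix contained 0.4% bovine serum albumin and was preincubated with compound 10 min at room temperature.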
# [5] = system: UISO; test: qHTS assay to identify novel small-molecules to repurpose for Merkel cell carcinoma treatment (AID 1296009); settings: MCC and control cell lines, CellTiter-Glo viability, 72 h; activity change, negative = cytotoxicity: at 46 µM (top of the series); further: nearly all actives have a fitted effect of over 60% in size; further: potency means the concentration at half of the fitted maximal effect; on activity change, negative = cytotoxicity: on the % scale 0 is the no-effect control and ±100 the full control effect
# In short: (§2)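 After compound transfer in DMSO, plates were kept 72 hr at 37 degree celsius. Luminescent ATP signal from CellTiter-Glo served as viability measure, normalized against DMSO and no-cell controls.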
# [6] = system: WaGa; test: as above; settings: MCC and control cell lines, CellTiter-Glo viability, 72 h; series mostly up to 46 µM
# In short: as §2
# [7] = molecular target: Calcium and integrin-binding protein 1 (Homo sapiens) (UniProt Q99828); test: Primary qHTS for Identification of Calcium Integrin Binding Protein 1 (CIB1) Competitor (AID 1508620); further: potency means the concentration at half of the fitted maximal effect
# Chain of UniProt Q99828 (Q99828 whole entry, looked up): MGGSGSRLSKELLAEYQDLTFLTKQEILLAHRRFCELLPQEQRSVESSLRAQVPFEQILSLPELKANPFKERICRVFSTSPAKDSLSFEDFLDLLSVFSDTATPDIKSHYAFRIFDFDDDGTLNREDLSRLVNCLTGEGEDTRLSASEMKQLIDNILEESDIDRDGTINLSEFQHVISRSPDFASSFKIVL
# In short: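 CIB1-GST (1 uM final) and compound incubated 15 min at room temperature before adding FITC-alphaIIb peptide tracer (100 nM final). Competition for binding read by fluorescence polarization (ex 480, em 540) after another 15 min at room temperature.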
# [8] = qHTS to identify inhibitors of the type 1 interferon - major histocompatibility complex class I in skeletal muscle: primary screen against the NCATS Mechanism Interrogation Plate v5.0 (MIPE) Libary (AID 1347411); settings: iHSKM cells + IFN-b, HiBiT-tagged MHC-I luminescence, 24 h; activity change, negative = inhibition: at 45.8 µM (top of the series); further: nearly all actives have a fitted effect of over 65% in size; further: potency means the concentration at half of the fitted maximal effect;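 on activity change, negative = inhibition: plate controls were vehicle for no effect and reference inhibitor for full effect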
# In short: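 Cells were genome-edited human myoblasts carrying a HiBit tag on endogenous HLA-B. They were treated with IFN-beta (4.0 ng/ml) and titrated compounds (top 46 uM) for 24 hrs before lytic HiBiT detection.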
# [9] = A High-Content qHTS Against Drug Library for the Identification of Small Molecules that Inhibit DYT1 Early Onset Primary Dystonia-Associated Cell Pathology (AID 1645839; calls by dose curve)
# In short: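 In this high-content image screen, delE TorsinA mislocalization in inducible Flp-In 293 cells is scored as %pathology, with cell count serving as the counterscreen. Compound exposure lasts 48 h under tetracycline induction in reduced-serum medium.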
# [10] = molecular target: Cytochrome P450 2D6 (Homo sapiens) (UniProt P10635); test: Cytochrome P450 family 2 subfamily D member 6 (CYP2D6) small molecule antagonists: luciferase biochemical (cell-free) qHTS assay (AID 1645840; active means well fitted curve in the direction sought with a large enough effect in the repeat runs; inconclusive means weak or mixed curves; inactive means no such curve, though single readings can be large; an effect the other way counts as inactive or inconclusive; further: nearly all actives have a fitted effect of over 55% in size; further: potency means the concentration at half of the fitted maximal effect; on activity change, negative = inhibition: on the % scale 0 is the no-effect control and ±100 the full control effect)
# Chain of UniProt P10635 (P10635 whole entry, looked up): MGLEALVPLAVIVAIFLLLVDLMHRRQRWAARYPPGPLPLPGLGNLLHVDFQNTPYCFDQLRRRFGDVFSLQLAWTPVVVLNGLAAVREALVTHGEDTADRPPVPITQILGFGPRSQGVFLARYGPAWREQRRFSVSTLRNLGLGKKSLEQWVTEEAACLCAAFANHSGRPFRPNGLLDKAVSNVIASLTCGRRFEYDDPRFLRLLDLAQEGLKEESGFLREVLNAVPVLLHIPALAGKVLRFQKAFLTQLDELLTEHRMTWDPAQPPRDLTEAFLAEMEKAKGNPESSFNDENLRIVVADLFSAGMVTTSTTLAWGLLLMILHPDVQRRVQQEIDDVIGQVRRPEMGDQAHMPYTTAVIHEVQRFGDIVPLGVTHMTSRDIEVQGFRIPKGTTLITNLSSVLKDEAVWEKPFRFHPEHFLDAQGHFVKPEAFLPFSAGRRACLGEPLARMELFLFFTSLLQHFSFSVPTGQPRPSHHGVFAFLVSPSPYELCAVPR
# In short: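 P450-Glo luminescent screen: recombinant CYP2D6 enzyme–proluciferin substrate mix preincubated with compound 10 min at room temperature, then NADPH regeneration added for 1 h at room temperature. Detection reagent added for 20 min; luciferin light read as relative luminescence units.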
# [11] = qHTS of pediatric cancer cell lines to identify multiple opportunities for drug repurposing: Primary screen for BT-37 cells (AID 1347094); further: potency means the concentration at half of the fitted maximal effect
# In short: as §1
# [12] = qHTS of pediatric cancer cell lines to identify multiple opportunities for drug repurposing: Primary screen for Rh41 cells (AID 1347108); further: potency means the concentration at half of the fitted maximal effect; nearly all actives have a fitted effect of over 70% in size
# In short: as §1
# [13] = molecular target: Glutathione peroxidase 1 (Homo sapiens) (UniProt P07203); test: Primary qHTS Assay for Inhibitors of Recombinant Selenoprotein Glutathione Peroxidase 1 (GPX1) (AID 1845191); settings: activity, negative = inhibition: at 48.8 µM (top of the series); further: nearly all actives have a fitted effect of over 65% in size
# Chain of UniProt P07203 (P07203 whole entry, looked up): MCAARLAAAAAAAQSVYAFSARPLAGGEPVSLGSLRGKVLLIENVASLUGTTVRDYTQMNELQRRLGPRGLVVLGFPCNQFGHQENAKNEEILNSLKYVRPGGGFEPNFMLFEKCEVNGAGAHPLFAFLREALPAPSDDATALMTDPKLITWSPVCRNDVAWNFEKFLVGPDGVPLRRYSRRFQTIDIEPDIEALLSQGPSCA
# In short: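 10 nM GPX1 + cpd, 30 min RT; start w/ 1 mM GSH, 0.5 mM cumene hydroperoxide, 0.5 mM NADPH, 100 nM GR, 0.01% BSA; buffer 50 mM Tris-HCl pH 7.5, 2 mM EDTA, 150 mM NaCl; Fl 340/450, 0 & 15 min.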
# [14] = molecular target: Phospholipid hydroperoxide glutathione peroxidase GPX4 (Homo sapiens) (UniProt P36969); test: Primary qHTS Assay for Inhibitors of Recombinant Selenoprotein Glutathione Peroxidase 4 (GPX4) (AID 1845192); further: potency means the concentration at half of the fitted maximal effect; nearly all actives have a fitted effect of over 65% in size
# Chain of UniProt P36969 (P36969 whole entry, looked up): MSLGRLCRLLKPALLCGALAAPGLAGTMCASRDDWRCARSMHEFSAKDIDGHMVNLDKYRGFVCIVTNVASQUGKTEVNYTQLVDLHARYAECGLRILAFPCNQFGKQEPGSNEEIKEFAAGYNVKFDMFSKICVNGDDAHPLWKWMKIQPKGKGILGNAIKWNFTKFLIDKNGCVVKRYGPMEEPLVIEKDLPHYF
# In short: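 NADPH consumption, followed by fluorescence at 340/450 nm between 0 and 15 min, reports GPX4 activity via coupled glutathione reductase (100 nM). Enzyme 200 nM was pre-exposed to compound 30 min; 0.5 mM cumene hydroperoxide and 1 mM GSH served as substrates.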
# [15] = system: HeLa; test: Primary qHTS to identify gynecologic anti-cancer compounds using libraries of approved drugs and bioactive compounds (AID 1345084); settings: Gynecologic cancer cell panel viability, ATPlite luminescence, 48 h; activity change, negative = cytotoxicity: at 57.5 µM (top of the series); further: potency means the concentration at half of the fitted maximal effect; nearly all actives have a fitted effect of over 55% in size
# In short: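 Five-concentration response, 48 h; readout is ATP-driven luciferase luminescence.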
# [16] = qHTS assay to identify inhibitors of the type 1 interferon - major histocompatibility complex class I in skeletal muscle: Counter screen cell viability and HiBit confirmation (AID 1347412); settings: iHSKM muscle cells + IFN-b, HiBiT or CellTiter-Glo, 24 h; further: nearly all actives have a fitted effect of over 60% in size; further: potency means the concentration at half of the fitted maximal effect; on activity change, negative = inhibition: on the % scale 0 is the no-effect control and ±100 the full control effect
# In short: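 CRISPR HLA-B*08:01-HiBit immortalized human myoblasts (C25cl48) stimulated with 4 ng/ml IFN-beta and compounds (12-point 1:3, top 46 uM final) for 24 h at 37 C. Duplicate plates read by HiBit lytic luminescence or CellTiter Glo ATP.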
# [17] = Primary redox qHTS assay for identification of artifact compounds. (AID 1845223); settings: Amplex Red/HRP redox cycling with DTT, fluorescence; redox activity (% of DA3003): at 53.8 µM (top of the series); further: potency means the concentration at half of the fitted maximal effect;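 on redox activity (% of DA3003): 0% = DMSO and 100% = reference compound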
# In short: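 Amplex Red (25 uM) and HRP (250 mU/mL) in HBSS, with compounds for 15 min, then 250 uM DTT for 30 min, room temperature, dark. Fluorescence 525/598 nm read; normalized to DMSO and 10 uM DA3003; Hill fit.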
# Tags describe the fitted curve by direction and shape.
smiles,measurement,setting,value
CCCOC(=O)c1ccccc1,Potency,[1],inactive
same,Potency,[2],inactive
same,Potency,[3],"inconclusive [inhibitor, full curve]"
same,Potency,[4],inactive
same,Potency,[5],inactive
same,Potency,[6],inactive
C=C1C(=O)O[C@@H]2C(OC(=O)/C(C)=C\C)/C(C)=C\C(=O)/C=C(\C)C[C@H](O)[C@@H]12 (some centres not stated),Potency,[7],"inconclusive [inhibitor, full curve, poor fit]"
CCOC(=O)[C@H](CCc1ccccc1)N[C@@H](C)C(=O)N1[C@H](C(=O)O)C[C@@H]2CCC[C@@H]21,Potency,[8],inactive
same,Potency,[9],inactive
same,Potency,[10],inactive
same,Potency,[4],inactive
O=C(C=CC#Cc1cccc(NS(=O)(=O)c2ccccc2)c1)NO,Potency,[11],active: 4.85 µM
same,Potency,[2],active: 5.26 µM
same,Potency,[12],active: 2.96 µM
same,Potency,[5],active: 16.6 µM
CCOC(=O)[C@H](CCc1ccccc1)N[C@@H](C)C(=O)N1[C@@H](C(=O)O)C[C@H]2CCC[C@@H]21,Potency,[12],active: 11.8 µM
COc1cc2c(cc1NS(=O)(=O)c1ccc(Br)cc1C)n(C)c(=O)n2C,Potency,[10],"inconclusive [inhibitor, single point]"
same,Potency,[4],active: 1.69 µM
same,Potency,[13],inactive
Cc1ccc(-c2ccc3ncc4c(c3n2)n(C2CCN(C(=O)[C@H](C)O)CC2)c(=O)n4C)cn1,Potency,[8],"inconclusive [inhibitor, full curve]"
same,Potency,[4],active: 10.7 µM
same,Potency,[14],"inconclusive [inhibitor, full curve]"
same,Potency,[15],active: 1 µM
same,Potency,[16]; HiBiT,"inconclusive [inhibitor, full curve]"
same,Potency,[16]; Viability,"inconclusive [cytotoxic, full curve]"
O=C(Nc1cccnn1)N1CCC(=Cc2cccc(Oc3ccc(C(F)(F)F)cn3)c2)CC1,Potency,[8],"inconclusive [inhibitor, partial curve, poor fit]"
Cc1cc(-c2cc(O)ccc2Cl)cc2nnc(Nc3ccc(OCCN4CCCC4)cc3)nc12,Potency,[7],"inconclusive [inhibitor, partial curve, poor fit]"
same,Potency,[15],"inconclusive [cytotoxic, single point]"
Cc1nc2ccc(-n3ncc(C(=O)c4cc5ccccc5[nH]4)c3N)cc2[nH]1,Potency,[8],"inconclusive [inhibitor, partial curve]"
same,Potency,[4],"inconclusive [inhibitor, partial curve]"
same,Potency,[15],active: 28.2 µM
Cc1ccc(C(=O)Nc2ccc(CN3CCN(C)CC3)c(C(F)(F)F)c2)cc1C#Cc1cnc2[nH]ncc2c1,Potency,[8],active: 0.117 µM
same,Potency,[14],"inconclusive [inhibitor, full curve, poor fit]"
same,Potency,[15],"inconclusive [cytotoxic, partial curve, poor fit]"
same,Potency,[16]; Viability,"inconclusive [cytotoxic, partial curve, poor fit]"
COC(=O)C1=COC(O[C@@H]2O[C@H](CO[C@@H]3O[C@H](COC(=O)/C=C\c4ccc(O)cc4)[C@@H](O)[C@H](O)[C@H]3O)[C@@H](O)[C@H](O)[C@H]2O)C2C(CO)=CCC12 (some centres not stated),Potency,[17],"inconclusive [activator, partial curve, poor fit]"
same,Potency,[15],inconclusive
CCCCCCOC(=O)/N=C(\N)c1ccc(NCc2nc3cc(C(=O)N(CCC(=O)OCC)c4ccccn4)ccc3n2C)cc1,Potency,[10],"inconclusive [inhibitor, full curve, poor fit]"
same,Potency,[4],inactive
CNC(=O)COC(=O)N1CCC(CCc2ccc(Cl)cc2)CC1,Potency,[10],"inconclusive [inhibitor, single point]"
same,Potency,[4],active: 21.3 µM
COCCN1CCN(Cc2ccc(-c3n[nH]c4c3C(=O)c3c(NC(=O)NN5CCOCC5)cccc3-4)cc2)CC1,Potency,[8],active: 0.208 µM
same,Potency,[10],"inconclusive [inhibitor, partial curve, poor fit]"
same,Potency,[14],"inconclusive [inhibitor, partial curve]"
same,Potency,[17],inactive
same,Potency,[15],"inconclusive [cytotoxic, full curve, poor fit]"
same,"activity change, negative = inhibition","[16]; Viability, at 45.9 µM (top of the series)",inactive: 44.8%
